The record followed here is the supplement of paper PMC11417369.

± gives the standard deviation of the averaged measurements. The list shows a part of the results.

The subject of the test is PfAP2-EXP AP2 domain (GST-tagged). As to the kind of experiment: gcPBM binding intensity (ln(normalized median fluorescence intensity)); higher = stronger DNA binding. Summed up: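 Binding of GST-tagged P. falciparum DNA-binding domains, expressed in E. coli and used at about 25 μg on average, was carried out for 1 h in 1× PBS containing 1% milk, 0.2 mg/ml BSA, 0.5% salmon testes DNA and 0.03% Triton X-100. The target was an Agilent 4 × 180k array of primer-extended double-stranded 36-bp intergenic genomic probes plus negative controls, read with Alexa488 anti-GST antibody at 488 nm. Binding intensity is the highest Masliner-normalised natural-log median intensity across replicate spots of either probe orientation.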
In the case of “TTAAAAAAGTAATTAACACACAATAATGTAATGCAT [CACACA_site4176]”, the “gcPBM binding intensity (ln)” value turned out to be 8.58 ± 0.34.

Regarding “TTATTATATATGTTCACATAAATACATAAATATATA [GTGCAC_negctrl_site529]”, the “gcPBM binding intensity (ln)” value worked out at 8.36 ± 0.33.

Take “TATATATATATATATATATATATATATATAATTTGA [XGTACX_negctrl_site3]”: the “gcPBM binding intensity (ln)” value worked out at 9.97 ± 0.61.

For the sequence “AAAAAAAAAAGACACACACACACATACACATACATA [CACACA_site7362]”, the “gcPBM binding intensity (ln)” value was 8.6 ± 0.58.

As to “ACCCAAAATATATTCACACAAAAAATATTAAAAATA [CACACA_site5433]”, the “gcPBM binding intensity (ln)” value worked out at 8.43 ± 0.49.

As for “AAGCATCCTACTGATTGTACATATATATATATATAT [XGTACX_site2150]”, the “gcPBM binding intensity (ln)” value was 10.2 ± 0.3.

Take “GAGAACATTGATACACGTACATAAGTTATAAGTATT [XGTACX_site7665]”: the “gcPBM binding intensity (ln)” value is 8.71 ± 0.35.

“AATAAACAAATAAATAAATAAACAGATAAATAAATC [CACACA_negctrl_site920]”: the “gcPBM binding intensity (ln)” value is 8.79 ± 0.32.

Consider “TAATATATATAACAAGTGCAAAAAAATATAGATATT [GTGCAC_site9625]”, for which the “gcPBM binding intensity (ln)” value worked out at 9.09 ± 0.13.

“TTAGGTTATAAATACACACACAAAAGAAAAAAAAAA [CACACA_site5625]”: the “gcPBM binding intensity (ln)” value worked out at 8.52 ± 0.54.

For the sequence “TTTATTTATATAATTACACACATATATACACAAATG [CACACA_site8903]”, the “gcPBM binding intensity (ln)” value was determined as 8.42 ± 0.44.

Consider “TATTTAAATTAATATTGTACATATATTTATAATATA [XGTACX_site6109]”, for which the “gcPBM binding intensity (ln)” value amounted to 8.27 ± 0.37.

For the sequence “AAATATATTATATATGCATGCGCCAAGATTTATATA [TGCATGCA_site770]”, the “gcPBM binding intensity (ln)” value amounted to 9.08 ± 0.3.

“TATATATATTCTTTGTGTACTCATATAAGGGTAGAA [XGTACX_site8121]”: the “gcPBM binding intensity (ln)” value worked out at 8.72 ± 0.27.

Regarding “AATCAATATTATATATGTACTTATTTTCACTTTTGC [XGTACX_site1775]”, the “gcPBM binding intensity (ln)” value was 8.71 ± 0.32.

For the sequence “TTTTTAGAAAAGGTTATAAAAAATTAATTGAAAAAA [GTGCAC_negctrl_site289]”, the “gcPBM binding intensity (ln)” value came to 8.2 ± 0.45.

For “TTGTCATTATTATATTGTACAATAAGTATTAAAGAA [XGTACX_site1205]”, the “gcPBM binding intensity (ln)” value turned out to be 8.64 ± 0.34.

Consider “AACTGATATTAATTCTGTACCTATACGTTATATGTT [XGTACX_site1003]”, for which the “gcPBM binding intensity (ln)” value was 8.68 ± 0.48.

On to “AAGCGAATCTATATCACACACAAAAAAATCAGACTA [CACACA_site7072]”, for which the “gcPBM binding intensity (ln)” value stood at 8.57 ± 0.44.

On to “AGTTCAGAATTGAATAGTACATAAATATAACAAAAT [XGTACX_site650]”, for which the “gcPBM binding intensity (ln)” value was 8.88 ± 0.36.

On to “TATGAACATATATATTGTACAAAATTATAATTTCAA [XGTACX_site6406]”, for which the “gcPBM binding intensity (ln)” value was 8.46 ± 0.4.

For “AAAAGGAAAAATATCACACATATATATATATATATA [CACACA_site5586]”, the “gcPBM binding intensity (ln)” value worked out at 10.2 ± 0.34.

In the case of “ATTATTATACACAAATGTACATGTGAATTTTTTTTC [XGTACX_site6982]”, the “gcPBM binding intensity (ln)” value came out at 8.59 ± 0.46.

“AATAAGTAACAAAATACACACATATAGGTAATTATA [CACACA_site6949]”: the “gcPBM binding intensity (ln)” value was determined as 8.66 ± 0.32.

Consider “ATATATATTTATAGGTGTACAAAATACTATTTTAGG [XGTACX_site8499]”, for which the “gcPBM binding intensity (ln)” value was 8.62 ± 0.19.

For the sequence “GTACGTTAGATATATACACACATACATAATAAAGAA [CACACA_site7327]”, the “gcPBM binding intensity (ln)” value came to 8.57 ± 0.099.

Consider “TTACCCATTCCCTTTACATGCAATTTGTATTAATAA [TGCATGCA_site412]”, for which the “gcPBM binding intensity (ln)” value came to 9.28 ± 0.28.

Take “TTAATTCTACTTATTACACACATATTAAGCAAAAAT [CACACA_site4921]”: the “gcPBM binding intensity (ln)” value was found to be 8.43 ± 0.35.

For the sequence “ATATGTTCCGAAGGTTGTACACACATAGAAATATAC [XGTACX_site8227]”, the “gcPBM binding intensity (ln)” value was determined as 9.1 ± 0.38.

“AAAATATATACAATATGTACATATATATATATATAT [XGTACX_site1898]”: the “gcPBM binding intensity (ln)” value was 9.96 ± 0.35.

Take “TATTTATATTTATACACACACACAAAAAAAAAAAAA [CACACA_site6817]”: the “gcPBM binding intensity (ln)” value worked out at 8.36 ± 0.57.

As for “TATATATATATAAAGACACACATCTATAGAATGTTA [CACACA_site2557]”, the “gcPBM binding intensity (ln)” value is 9.8 ± 0.22.

As to “TTGTTTTCTTTTTCTTTTCTTTTTCTTTTTTCTTTT [GTGCAC_negctrl_site629]”, the “gcPBM binding intensity (ln)” value came out at 8.49 ± 0.73.

As to “TATATATATATACCTTGTACTTACATTCGCATATAA [XGTACX_site2466]”, the “gcPBM binding intensity (ln)” value is 10.12 ± 0.078.

Take “AAAAAAAAAAAAAAAGCACACACACCGATGTGTATA [CACACA_site8224]”: the “gcPBM binding intensity (ln)” value stood at 8.48 ± 0.092.

For the sequence “GTATAATTATGTGCACGTACATATTTTATTATATAT [XGTACX_site8586]”, the “gcPBM binding intensity (ln)” value came out at 9.05 ± 0.11.

Consider “CCATTACCATATAAAACACACAAACATACATACATA [CACACA_site5952]”, for which the “gcPBM binding intensity (ln)” value turned out to be 8.7 ± 0.54.

For the sequence “ACATAAATATATGACACACACACATATTATATATAT [CACACA_site3065]”, the “gcPBM binding intensity (ln)” value stood at 8.79 ± 0.16.

For the sequence “TACCAAATTTATTCTTGTACATATATATATATATAT [XGTACX_site4832]”, the “gcPBM binding intensity (ln)” value was found to be 10.1 ± 0.4.

For “AATATAGAAATAAATATATCACATTTGTGTTTAAAC [XGTACX_negctrl_site68]”, the “gcPBM binding intensity (ln)” value is 8.27 ± 0.39.

Take “TTTATGACTTGAAAAAGTACACATATATTTATGCAA [XGTACX_site5451]”: the “gcPBM binding intensity (ln)” value was found to be 8.39 ± 0.34.

For “GTAAGAAACAGACACACACACATATATATATATATA [CACACA_site794]”, the “gcPBM binding intensity (ln)” value was 10.2 ± 0.24.

Take “AATAATTTTATCGGTACACACTGTATGCATAATATT [CACACA_site4364]”: the “gcPBM binding intensity (ln)” value is 8.84 ± 0.47.

As to “GAACAGTTTGTTTAGTGTACTTTTTTTTTTTTTTTT [XGTACX_site8881]”, the “gcPBM binding intensity (ln)” value is 8.695 ± 0.078.

For “TTTGATCGATGGATTTAACACACAAAAAAAAAAAAA [CACACA_site9279]”, the “gcPBM binding intensity (ln)” value turned out to be 8.31 ± 0.55.

In the case of “CTTAATTTAATGAAATGTACATATAAAAATATTATA [XGTACX_site3303]”, the “gcPBM binding intensity (ln)” value turned out to be 8.47 ± 0.31.

As for “TCTAATTACAAAAACATACACACAAAAAAAAAAAAA [CACACA_site3783]”, the “gcPBM binding intensity (ln)” value was found to be 8.04 ± 0.73.

Turning to “TCAAAAATAAAGATCACACATATATATATATATATA [CACACA_site4381]”, the “gcPBM binding intensity (ln)” value stood at 10.2 ± 0.35.

For the sequence “ATGTACAAAATAAGCACACACAAAAAAAAAAAAAAT [CACACA_site2998]”, the “gcPBM binding intensity (ln)” value was 8.47 ± 0.5.

As for “CCTATAAATGCATTCACACATATATATTTATATTAT [CACACA_site6086]”, the “gcPBM binding intensity (ln)” value is 8.7 ± 0.29.

For the sequence “ATGATAAACATGGATACACACATATAGATTGCATAT [CACACA_site6843]”, the “gcPBM binding intensity (ln)” value is 8.56 ± 0.36.

For “ATTTCTCTATCGTAATGTACATAAAAAAGAAAAACA [XGTACX_site6374]”, the “gcPBM binding intensity (ln)” value was 8.71 ± 0.52.

Turning to “TTATTAAATTCATAAGTGCATTTATGATTAATTTTT [GTGCAC_site9749]”, the “gcPBM binding intensity (ln)” value is 8.32 ± 0.085.

For “TTCATCTTAAAATTGGGTACATAACACAAAGTATAA [XGTACX_site1894]”, the “gcPBM binding intensity (ln)” value worked out at 8.67 ± 0.33.

In the case of “ATATATATTAACAATACACACGTGTATACCTTATTG [CACACA_site5258]”, the “gcPBM binding intensity (ln)” value was 8.79 ± 0.39.

Turning to “TTACATGTAAAAGGTACACACATTATGTATACAAAT [CACACA_site1117]”, the “gcPBM binding intensity (ln)” value was found to be 8.96 ± 0.59.
